Laboratory results as given in paper PMC4336329 (PLoS ONE, 2015).
Out of some 310,000 compounds screened, about 2,200 (0.71%) showed an effect of 50% or more. The effect is printed as a negative number. Some of the results follow.

The molecules below were run against human ether-à-go-go-related gene (hERG) potassium channel (human, UniProt Q12809) (assay: primary screen, population patch clamp on CHO cells stably expressing hERG).
Sequence of human ether-à-go-go-related gene (hERG) potassium channel (Q12809 whole entry, looked up): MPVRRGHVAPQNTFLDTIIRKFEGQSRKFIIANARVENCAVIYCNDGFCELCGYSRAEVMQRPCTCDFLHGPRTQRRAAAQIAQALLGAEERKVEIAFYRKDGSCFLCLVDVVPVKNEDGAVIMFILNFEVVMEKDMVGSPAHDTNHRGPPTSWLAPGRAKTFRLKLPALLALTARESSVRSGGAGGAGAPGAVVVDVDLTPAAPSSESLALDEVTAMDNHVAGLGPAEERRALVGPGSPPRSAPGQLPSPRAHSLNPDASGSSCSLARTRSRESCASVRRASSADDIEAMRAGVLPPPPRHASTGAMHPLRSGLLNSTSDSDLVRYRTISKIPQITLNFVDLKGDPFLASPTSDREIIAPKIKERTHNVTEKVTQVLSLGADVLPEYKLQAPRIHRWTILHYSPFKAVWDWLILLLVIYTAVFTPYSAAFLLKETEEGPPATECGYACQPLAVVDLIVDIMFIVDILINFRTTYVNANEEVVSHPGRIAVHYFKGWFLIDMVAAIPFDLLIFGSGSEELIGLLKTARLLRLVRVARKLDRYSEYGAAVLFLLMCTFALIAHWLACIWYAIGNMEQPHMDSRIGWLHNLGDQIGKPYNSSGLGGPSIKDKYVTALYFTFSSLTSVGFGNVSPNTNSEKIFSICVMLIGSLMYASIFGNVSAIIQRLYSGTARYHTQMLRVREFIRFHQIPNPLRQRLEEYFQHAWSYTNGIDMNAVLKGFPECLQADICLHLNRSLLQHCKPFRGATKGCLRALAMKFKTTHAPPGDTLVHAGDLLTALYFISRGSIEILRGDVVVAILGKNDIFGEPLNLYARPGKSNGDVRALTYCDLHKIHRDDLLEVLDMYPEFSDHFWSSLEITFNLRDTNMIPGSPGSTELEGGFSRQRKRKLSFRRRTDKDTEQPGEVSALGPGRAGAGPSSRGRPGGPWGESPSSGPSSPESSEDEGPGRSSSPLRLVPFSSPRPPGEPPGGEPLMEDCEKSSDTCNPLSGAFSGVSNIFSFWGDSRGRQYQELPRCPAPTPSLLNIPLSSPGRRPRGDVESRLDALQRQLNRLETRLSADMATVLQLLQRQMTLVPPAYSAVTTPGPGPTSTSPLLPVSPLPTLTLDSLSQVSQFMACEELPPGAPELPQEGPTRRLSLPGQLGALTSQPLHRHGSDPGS

Row | SMILES | hERG current change (%, negative = inhibition) at 1uM [%]
1 | COc1ccc(NC(=O)COC(=O)c2cc(Cl)ccc2O)cc1S(=O)(=O)N1CCCCC1 | 12.7
2 | CCCCc1nc(SCC(=O)Nc2ncccn2)n[nH]1 | 12.3
3 | O=C(NCC1CCCN(Cc2cccc(F)c2)C1)c1cccc2ccccc12 (stereo not drawn) | 0.314
4 | CCc1nnc(NC(=O)CSc2nnc(Cc3ccccc3)n2-c2ccccc2)s1 | 6.68
5 | COc1cccc(CNC(=O)Cn2ccc3cc(S(=O)(=O)N4CCC(C)CC4)ccc32)c1 | -3.85
6 | O=C(O)CNC1c2ccccc2CSc2ccccc21 (stereo not drawn) | 16.7
7 | CCOc1cc(CNc2ccc(S(N)(=O)=O)cc2)ccc1OCC(=O)NC(C)(C)C | 13.6
8 | COc1ccc(CCNC(=O)c2cc(-c3ccc(C)cc3O)n[nH]2)cc1OC | 13.8
9 | CCOc1ccc2nc(N3C(=O)/C(=C/c4ccccc4)NC3=S)sc2c1 | 18.1
10 | O=C(/C=C/c1ccccc1[N+](=O)[O-])c1ccc(F)cc1 | 9.45
11 | COc1ccccc1N(C(=O)CNC(=O)c1ccco1)C(C(=O)NCC1CCCO1)c1ccccc1 (stereo not drawn) | 14
12 | CCNc1nc(NCC)n2c(SCC(=O)Nc3ccc(F)cc3[N+](=O)[O-])nnc2n1 | 7.91
13 | CCc1ccc(CN(C)C(=O)C2CCC(=O)N(CCc3ccc(OC)cc3)C2)nc1 (stereo not drawn) | -57.9
14 | O=C(CCCOc1ccc(Cl)cc1Cl)N1CCN(c2ccccn2)CC1 | -4.25
15 | C/C(=N\NC(=O)C1(C)CC1(Br)Br)c1ccc(NC(=O)c2ccc(C)o2)cc1 (stereo not drawn) | 12.8
16 | CC(=O)N1CCN(S(=O)(=O)c2cccc(C(=O)Nc3nccs3)c2)CC1 | 9.8
17 | Nc1ccc(N=Nc2ccccc2)c2ccccc12 | 8.38
18 | O=C(Cc1ccc([N+](=O)[O-])cc1)N/N=C/c1cccnc1 | 10.7
19 | CC(C)c1ccc(-c2nc(N3CCOCC3)[nH]c(=O)c2C#N)cc1 | 8
20 | COCCN(C(=O)COC(=O)CCSc1ccc(F)cc1)c1c(N)n(Cc2ccccc2)c(=O)[nH]c1=O | 9.49
21 | Cc1ccc(-c2onc3ccc(Br)cc23)cc1 | 18.7
22 | Cc1cc(C)n(-c2ccc(C(=O)Nc3nnc(C)s3)cc2)n1 | 5.49
23 | CC(CCc1ccccc1)NC(=O)c1cnc(Cl)c(Cl)c1 (stereo not drawn) | 10

Row | SMILES | hERG current change (%, negative = inhibition) at 1uM [%]
24 | O=C(N/N=C/c1ccc(-c2ccc([N+](=O)[O-])cc2)o1)c1cccnc1 | 7.92
25 | COc1ccc(NC(=O)c2cccs2)c([N+](=O)[O-])c1 | 8.13
26 | CCC(CC)C(=O)Nc1cccc(SC)c1 | 15.1
27 | CC(C)CC(NC(=O)/C(=C\c1ccco1)NC(=O)c1ccco1)C(=O)O (stereo not drawn) | 12.3
28 | O=C(N/N=C/c1ccco1)c1ccc(NC(=O)C2CCCCC2)cc1 | 13.6
29 | Nc1nc(SCC(=O)O)[nH]c(=O)c1NC(=O)c1ccccc1F | 15.4
30 | Cc1ccc(C(=O)/C=C/c2ccc(Br)cc2)o1 | -4.08
31 | COc1cc2c(cc1OC)C(C)N(S(=O)(=O)c1cnc(Cl)c(Cl)c1)CC2 (stereo not drawn) | 10.3
32 | Cn1nc(C(=O)NCc2cccc(F)c2)cc1C(=O)NCc1cccc(F)c1 | -21.4
33 | O=C(NCC1CCCO1)c1ccc(COc2ccc(F)cc2)o1 (stereo not drawn) | 9.1
34 | S=C(NCc1ccccc1)N1CCN(C2CCCCC2)CC1 | -7.29
35 | Cc1ccnc(SCC(=O)Nc2oc(-c3ccccc3)c(-c3ccccc3)c2C#N)n1 | 8.54
36 | Cc1ccc(C2c3c(oc4ccccc4c3=O)C(=O)N2c2nnc(C(C)C)s2)o1 (stereo not drawn) | 6.23
37 | COCCN(CCOC)CC(O)COC(c1ccccc1)c1ccccc1 (stereo not drawn) | -6.95
38 | CCn1cc(C(=O)N2CCN(Cc3ccc4c(c3)OCO4)CC2)c(=O)c2ccc(C)nc21 | 4.86
39 | COc1ccc(Cl)cc1NC(=O)Nc1cnccn1 | 13.7
40 | Cc1ccc(S(=O)(=O)N2CCCC(C(=O)NC3=NCCS3)C2)cc1 (stereo not drawn) | 9.2
41 | CCOC(=O)C1=C(CSc2nc3c(cc2C#N)CN(C)CC3)OC(N)=C(C#N)C1c1ccccc1 (stereo not drawn) | 4.55
42 | CCOCCCN(C(=O)CNC(=O)c1ccco1)C(C(=O)NC1CCCC1)c1ccccc1C (stereo not drawn) | 20
43 | CC(C)OCCCNC(=O)C1CCN(S(=O)(=O)N2CCCCC2)CC1 | 12.2
44 | O=C(CCS(=O)(=O)c1ccc(F)cc1)N1CCOCC1 | 4.64
45 | COc1cc(CCC(=O)OCC(=O)N2CCc3ccccc32)cc(OC)c1OC | 17.3
